Experimental data taken from the supplement of paper PMC12217912.
Some of the results follow. The full chains were built here from the parent and the listed change. Values near 0.05 are background.

B1: TEV protease; numbered along this chain (parent)
chain: MGESLFKGPRDYNPISSSICHLTNESDGHTTSLYGIGFGPFIITNKHLFRRNNGTLVVQSLHGVFKVKDTTTLQQHLVDGRDMIIIRMPKDFPPFPQKLKFREPQREERICLVTTNFQTKSMSSMVSDTSCTFPSGDGIFWKHWIQTKDGQCGSPLVSTRDGFIVGIHSASNFTNTNNYFTSVPKNFMELLTNQEAQQWVSGWRLNADSVLWGGHKVFMVKPEEPFQPVKEATQL

Variants of: B1
Assay: raw area under fraction-flipped curve 0-4 h after induction (AUC4h, not background-subtracted), DNA-recorder readout of cleavage of the substrate (dimensionless); higher = more cleavage of the substrate by the protease variant
Settings: temperature: 34 °C; time window: 0-4 h after rhamnose induction
Experimental: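 In vivo DNA recorder in E. coli TOP10(DE3) ΔrhaA at 34 °C. Each TEVp single-site mutant (parent TEVp 0) is paired with a single-site variant of the 7-mer TEVs (canonical ENLYFQ|S). The substrate sits between flexible linkers in a Bxb1-sfGFP-TEVs-SsrA fusion, so cleavage stabilises Bxb1 and speeds flipping of a recombination array, read by NGS. The value is the raw area under the fraction-flipped curve over 0-4 h after rhamnose induction (AUC4h), with ≥20 reads per time point. It is not background-subtracted; inactive controls average about 0.047.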
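Also: Bxb1 expression induced with 0.2% (w/v) L-rhamnose at OD600 near 0.5, cultures sampled hourly, flipped fraction per protease–substrate barcode pair counted by paired-end Illumina sequencing.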

Variant | area with substrate ENLYFQC | area with substrate ENLYFQG | area with substrate ENLYFQM | area with substrate ENLYFQN | area with substrate ENLYFQP | area with substrate ENLYFQS | area with substrate ENLYFQT | area with substrate ENLYFQV | area with substrate ENLYFQY | area with substrate ENLYFQE | area with substrate ENLYFQF | area with substrate ENLYFQI | area with substrate ENLYFQL | area with substrate ENLYFQW | area with substrate ENLYFQQ | area with substrate ENLYFQH | area with substrate ENLYFQK | area with substrate ENLYFQR | area with substrate ENLYFQD
MGESLFKGPRDYNPISSSICHLTNESDGHTTSLYGIGFGPFIITNKHLFRRNNGTLVVQSLHGVFKVKDTTTLQVHLVDGRDMIIIRMPKDFPPFPQKLKFREPQREERICLVTTNFQTKSMSSMVSDTSCTFPSGDGIFWKHWIQTKDGQCGSPLVSTRDGFIVGIHSASNFTNTNNYFTSVPKNFMELLTNQEAQQWVSGWRLNADSVLWGGHKVFMVKPEEPFQPVKEATQL [Q75V] | 0.147 | 0.0869 | 0.084 | 0.0701 | 0.0484 | 0.0934 | 0.0594 | 0.0582 | 0.0591 |  |  |  |  |  |  |  |  |  | 
MGESLFKGPRDYNPISSSICHLTNESDGHTTSLYGIGFGPFIITNKHLFRRNNGTLVVQSLHGVFKVKDTTTKQQHLVDGRDMIIIRMPKDFPPFPQKLKFREPQREERICLVTTNFQTKSMSSMVSDTSCTFPSGDGIFWKHWIQTKDGQCGSPLVSTRDGFIVGIHSASNFTNTNNYFTSVPKNFMELLTNQEAQQWVSGWRLNADSVLWGGHKVFMVKPEEPFQPVKEATQL [L73K] | 0.0534 |  | 0.0495 |  | 0.0453 | 0.0525 |  |  | 0.0558 | 0.0565 | 0.046 | 0.0715 | 0.0462 | 0.049 |  |  |  |  | 
MGESLFKGPRDYNPISSSICHLTNESDGHTTSLYGIGFGPFIITNKHLFRRNNGTLVVQSLHGVFKVKDTTTHQQHLVDGRDMIIIRMPKDFPPFPQKLKFREPQREERICLVTTNFQTKSMSSMVSDTSCTFPSGDGIFWKHWIQTKDGQCGSPLVSTRDGFIVGIHSASNFTNTNNYFTSVPKNFMELLTNQEAQQWVSGWRLNADSVLWGGHKVFMVKPEEPFQPVKEATQL [L73H] | 0.0588 | 0.0632 | 0.0649 | 0.0681 | 0.0469 | 0.0564 | 0.0448 | 0.064 |  |  |  | 0.0662 | 0.0521 |  | 0.0355 |  |  |  | 
MGESLFKGPRDYNPISSSICHLTNESDGHTTSLYGIGFGPFIITNKHLFRRNNGTLVVQSLHGVFKVKDTTTLAQHLVDGRDMIIIRMPKDFPPFPQKLKFREPQREERICLVTTNFQTKSMSSMVSDTSCTFPSGDGIFWKHWIQTKDGQCGSPLVSTRDGFIVGIHSASNFTNTNNYFTSVPKNFMELLTNQEAQQWVSGWRLNADSVLWGGHKVFMVKPEEPFQPVKEATQL [Q74A] | 0.118 | 0.0788 | 0.0798 | 0.0836 | 0.0547 | 0.0975 | 0.0578 |  |  |  | 0.0824 | 0.0659 |  |  |  | 0.068 | 0.108 | 0.0501 | 
MGESLFKGPRDYNPISSSICHLTNESDGHTTSLYGIGFGPFIITNKHLFRRNNGTLVVQSLHGVFKVKDTTTLQQHLLDGRDMIIIRMPKDFPPFPQKLKFREPQREERICLVTTNFQTKSMSSMVSDTSCTFPSGDGIFWKHWIQTKDGQCGSPLVSTRDGFIVGIHSASNFTNTNNYFTSVPKNFMELLTNQEAQQWVSGWRLNADSVLWGGHKVFMVKPEEPFQPVKEATQL [V78L] | 0.0982 |  | 0.074 | 0.079 |  | 0.103 |  | 0.0325 |  |  |  |  | 0.0555 |  |  | 0.0822 | 0.058 | 0.055 | 
MGESLFKGPRDYNPISSSICHLTNESDGHTTSLYGIGFGPFIITNKHLFRRNNGTLVVQSLHGVFKVKDTTTLQQHLRDGRDMIIIRMPKDFPPFPQKLKFREPQREERICLVTTNFQTKSMSSMVSDTSCTFPSGDGIFWKHWIQTKDGQCGSPLVSTRDGFIVGIHSASNFTNTNNYFTSVPKNFMELLTNQEAQQWVSGWRLNADSVLWGGHKVFMVKPEEPFQPVKEATQL [V78R] | 0.0577 |  |  |  |  | 0.057 | 0.0658 |  |  |  | 0.0486 | 0.0474 | 0.0404 |  |  | 0.04 | 0.0602 |  | 
MGESLFKGPRDYNPISSSICHLTNESDGHTTSLYGIGFGPFIITNKHLFRRNNGTLVVQSLHGVFKVKDTTTLQQHLVDGWDMIIIRMPKDFPPFPQKLKFREPQREERICLVTTNFQTKSMSSMVSDTSCTFPSGDGIFWKHWIQTKDGQCGSPLVSTRDGFIVGIHSASNFTNTNNYFTSVPKNFMELLTNQEAQQWVSGWRLNADSVLWGGHKVFMVKPEEPFQPVKEATQL [R81W] | 0.057 |  | 0.0563 |  | 0.0884 | 0.0714 |  | 0.047 | 0.0574 |  |  |  | 0.0534 | 0.053 |  |  | 0.0595 | 0.0604 | 0.056
MGESLFKGPRDYNPISSSICHLTNESDGHTTSLYGIGFGPFIITNKHLFRRNNGTLVVQSLHGVFKVKDTTTLQQHLVDGSDMIIIRMPKDFPPFPQKLKFREPQREERICLVTTNFQTKSMSSMVSDTSCTFPSGDGIFWKHWIQTKDGQCGSPLVSTRDGFIVGIHSASNFTNTNNYFTSVPKNFMELLTNQEAQQWVSGWRLNADSVLWGGHKVFMVKPEEPFQPVKEATQL [R81S] | 0.0836 |  | 0.0466 | 0.0509 | 0.0825 | 0.0778 | 0.0516 | 0.0464 | 0.0589 | 0.0715 | 0.0618 | 0.0544 | 0.0567 | 0.052 | 0.0509 |  |  | 0.0614 | 0.0496
MGESLFKGPRDYNPISSSICHLTNESDGHTTSLYGIGFGPFIITNKHLFRRNNGTLVVQSLHGVFKVKDTTTLQQHLVDGRDMDIIRMPKDFPPFPQKLKFREPQREERICLVTTNFQTKSMSSMVSDTSCTFPSGDGIFWKHWIQTKDGQCGSPLVSTRDGFIVGIHSASNFTNTNNYFTSVPKNFMELLTNQEAQQWVSGWRLNADSVLWGGHKVFMVKPEEPFQPVKEATQL [I84D] | 0.0575 | 0.0445 | 0.0475 | 0.0416 | 0.0449 | 0.0504 | 0.0613 | 0.0478 | 0.0321 |  |  |  | 0.0575 | 0.0547 |  | 0.0551 | 0.0842 | 0.0637 | 0.03
